Among the data in PubChem BioAssay (NCI) are GI50 and TGI values, retold here.

Test systems include SK-MEL-2 melanoma; CCRF-CEM leukemia; NCI-H226 lung; HCT-116 colon; MDA-MB-435; HCT-15 colon; MDA-N; K-562 leukemia; MCF7 breast; HL-60(TB) leukemia; SR leukemia; M14 melanoma; MOLT-4 leukemia; TK-10 renal; U251 CNS; DU-145 prostate; SW-620 colon; NCI/ADR-RES ovarian; RPMI-8226 leukemia; PC-3 prostate; LOX IMVI melanoma; NCI-H23 lung; SNB-19 CNS; 786-0 renal; ACHN renal; BT-549 breast; DLD-1 colon; SF-539 CNS; UACC-62 melanoma; DMS 273 small cell lung; SNB-75 CNS; SK-MEL-28 melanoma; COLO 205 colon; HCC-2998 colon; HS 578T breast; SN12C renal; P388 leukemia; OVCAR-5 ovarian; DMS 114 small cell lung; CAKI-1 renal; NCI-H460 lung; SF-295 CNS; OVCAR-8 ovarian; RXF 393 renal; MALME-3M melanoma; HOP-62 NSCLC; HOP-92 NSCLC; EKVX NSCLC; UACC-257 melanoma; A549 NSCLC; MDA-MB-231 breast.

Holding throughout (experiment): NCI tumour cell line growth inhibition, 48 h

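48-hour exposure; five concentrations; linearly interpolated endpoints. GI50: concentration for 50% inhibition of growth.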 The source holds more than one record for some entries. The other results are left out here. The source may hold further records. For part of these data: The tests behind the records often covered other concentration ranges, which the source does not state; a value can be the end of its range. For part of these data: Values that stand side by side are repeated measurements (runs, samples, wells, individuals or studies). What stands in brackets tells the records apart. Letters count within one entry.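 TGI: total growth inhibition.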

As for `CC(C)(C#N)c1cc(Cn2cncn2)cc(C(C)(C)C#N)c1`, in the test with SK-MEL-2 melanoma, the GI50 is 101 nM and 825 µM.
Regarding `COC(=O)CCc1cc(OC)c2c(c1)C(C(=O)OC)C(c1ccc(OC)c(OC)c1)O2` (configuration not stated), the GI50 in the test on CCRF-CEM leukemia was > 100 µM [sample A, 1 test] and 7.42 µM [sample B, mean of 2 tests]; in the test with NCI-H226 lung, > 100 µM [sample A, 1 test] and 2.87 µM [sample B, 1 test]; in the test with HCT-116 colon, > 100 µM [sample A, 1 test] and 7.27 µM [sample B, 1 test]; in the test on MDA-MB-435 it was > 100 µM [sample A, 1 test] and 2.3 µM [sample B, mean of 2 tests]; in the test on HCT-15 colon it was > 100 µM [sample A, 1 test] and 5.34 µM [sample B, mean of 2 tests]; in the test on MDA-N, > 100 µM [sample A, 1 test] and 3.01 µM [sample B, mean of 2 tests]. For the same compound, the GI50 is > 100 µM [sample A, 1 test] and 3.54 µM [sample B, mean of 2 tests] in the test with K-562 leukemia; > 100 µM [sample A, 1 test] and 8.9 µM [sample B, mean of 2 tests] in the test with MCF7 breast. For the same compound, the TGI with MDA-MB-435 is > 100 µM [sample A, 1 test] and 8.9 µM [sample B, mean of 2 tests].
With `CCN(CC)CC(O)CNc1ccc(NCC2CO2)c2c1C(=O)c1ccccc1C2=O` (configuration not stated), the TGI is 33 nM and 1.25 µM in the test on HL-60(TB) leukemia; 165 nM and > 100 µM in the test with CCRF-CEM leukemia; 310 nM and 92.2 µM with SR leukemia; 174 nM and 11.5 µM in the test with K-562 leukemia. Moreover, in the test with CCRF-CEM leukemia, the GI50 was 2.52 nM and 62 nM.
With `CCOC(=O)C(Cc1c[nH]c2ccc(N)cc12)(NC(C)=O)C(=O)OCC`, the GI50 with M14 melanoma is 52.2 µM and > 1 mM.
Take `Cc1c[nH]c2c(O)cc3c(c12)[C@H](CCl)CN3C(=O)c1cc2cc(NC(=O)Nc3ccc4[nH]c(C(=O)N5C[C@@H](CCl)c6c5cc(O)c5[nH]cc(C)c65)cc4c3)ccc2[nH]1`: the TGI was 11.7 nM, 2.03 nM, 15 µM, 1.3e-06 µg/mL, 0.000903 µg/mL in the test on MOLT-4 leukemia; 4.05 nM and > 100 µM in the test with TK-10 renal; 23.2 nM and > 100 µM with U251 CNS; 69.2 nM, 17.3 nM, > 100 µM in the test with DU-145 prostate; 1.92 nM, 52.5 nM, 8.9e-07 µg/mL, 0.00108 µg/mL with HL-60(TB) leukemia; 4.54 nM and > 100 µM with SW-620 colon. In addition, the TGI in the test with CCRF-CEM leukemia is 17.2 nM, 258 nM, > 100 µM, 1.3e-05 µg/mL, 0.0106 µg/mL; in the test on NCI/ADR-RES ovarian, 25.3 nM, > 100 µM, 0.00887 µg/mL, 0.23 µg/mL; in the test on RPMI-8226 leukemia, 4.96 nM, > 100 µM, 8.4e-06 µg/mL, 0.0326 µg/mL; in the test with PC-3 prostate it was 5.8 nM and > 100 µM; in the test on SR leukemia, 36.4 nM and 21.7 µM; in the test on HCT-116 colon, 23.8 nM and 19.8 µM. Moreover, the TGI is 18.3 nM and 77.6 µM in the test with LOX IMVI melanoma; 29.6 nM, 41.6 µM, 0.00887 µg/mL, 0.00532 µg/mL with NCI-H23 lung; 43.8 nM, 464 nM, > 100 µM, 8.9e-07 µg/mL, 8.88 µg/mL in the test with SNB-19 CNS; 16.8 nM and > 100 µM in the test with 786-0 renal; 57.3 nM and 17.1 µM in the test with ACHN renal; 26.8 nM and > 100 µM in the test on M14 melanoma. The TGI was 5.21 nM and > 100 µM with BT-549 breast; 5.4e-06 µg/mL and 8.88 µg/mL in the test with DLD-1 colon; 49.6 nM, 8.86 µM, 8.9e-07 µg/mL, 0.00264 µg/mL with SF-539 CNS; 30 nM, 33.3 µM, 8.9e-07 µg/mL, 0.00162 µg/mL in the test with UACC-62 melanoma; 8.9e-07 µg/mL and 0.000888 µg/mL in the test on DMS 273 small cell lung; 68.1 nM, 1.96 nM, 8.48 µM, 8.9e-07 µg/mL, 0.00888 µg/mL in the test with SNB-75 CNS. Moreover, the TGI in the test on SK-MEL-28 melanoma is 33.1 nM, 35.6 µM, 8.9e-07 µg/mL, 0.00302 µg/mL; in the test on COLO 205 colon it was 35.8 nM, 21.5 nM, 28.1 µM; with MDA-MB-435 it was 34.1 nM and > 100 µM; in the test on HCC-2998 colon, 1.07 nM, 95.3 µM, 1.8e-06 µg/mL, 0.0145 µg/mL; with HS 578T breast, 99.7 nM, 2.61 nM, > 100 µM; with SN12C renal, 128 nM, 29.6 µM, 8.9e-07 µg/mL, 0.000888 µg/mL. Further, the TGI with MDA-N was 26.8 nM and > 100 µM; with P388 leukemia, 1.6e-06 µg/mL and 0.00126 µg/mL; in the test with OVCAR-5 ovarian it was 49.5 nM, 584 nM, > 100 µM, 8.9e-07 µg/mL; with DMS 114 small cell lung, 2.1e-06 µg/mL and 0.0131 µg/mL; with CAKI-1 renal it was 29.2 nM and > 100 µM; with K-562 leukemia, 1.23 µM, > 100 µM, 4.7e-06 µg/mL, 0.00869 µg/mL. Further, the TGI was 35.5 nM and 28.1 µM in the test on NCI-H460 lung; 45.1 nM, 1.41 nM, > 100 µM, 0.000888 µg/mL in the test on SF-295 CNS. Further, the GI50 with TK-10 renal is 1.44 nM and 40.8 µM; with U251 CNS, 0.191 nM and 410 nM.
In the case of `CC(=O)N[C@H]1C=C[C@@H]2/C=C(C)/C=C/[C@@H](C)[C@H]([C@H](C)[C@H](O)[C@@H](C)NC(C)=O)OC(=O)/C=C/C=C(C)\C=C\[C@]2(C)C1`, the GI50 in the test with HL-60(TB) leukemia is 18 nM and 992 nM; in the test with OVCAR-8 ovarian it was 832 nM and 4.5 nM; with MALME-3M melanoma, 38.8 nM and 871 nM; in the test on HOP-62 NSCLC, 103 nM and 9.75 nM; in the test on NCI-H23 lung, 1.27 µM and 35.2 nM; with EKVX NSCLC, 289 nM and 13.9 nM. For the same compound, the GI50 in the test on UACC-257 melanoma is 71.9 nM and 4.5 nM; with A549 NSCLC it was 70.1 nM and 4.5 nM. For the same compound, the TGI was 4.65 µM and 317 nM in the test on RXF 393 renal; 22.6 nM and 6.37 µM with M14 melanoma; 176 nM and 11.4 nM in the test on HOP-92 NSCLC; 26.7 nM and 6.56 µM in the test on SNB-75 CNS; 132 nM and 12 nM in the test on SF-295 CNS.
For the compound `O=c1ccn(C2OC(CO)C(O)C2F)c(=O)[nH]1` (configuration not stated), the GI50 with CCRF-CEM leukemia is > 1 mM [sample A, 1 test] and 34.4 µM [sample B, mean of 2 tests].
Consider `CCN(CC)CCCC(C)Nc1c2ccc(Cl)cc2nc2ccc(OC)cc12` (configuration not stated), for which the TGI in the test with MDA-MB-231 breast was 29.5 µM [sample A] and 2.79 µM [sample B].
Consider `COc1cc(C(=O)/C(C)=C/c2c[nH]c3ccccc23)cc(OC)c1OC`, for which the GI50 in the test on NCI-H226 lung is 6.15 nM and 1.77 µM.
